The campaign covered roughly 4,800 compounds. About 420 (8.8%) showed an effect of 50% or more. Some of the results follow.
These compounds were tested on Plasmodium falciparum (assay: Confirmatory screen in NF54 nanoGlo assay, in single point, at 2uM, 72h). Conditions: timepoint 72 hour.
Format: functional, Erythrocyte

| SMILES | % Inhibition [%] |
| --- | --- |
| CC(C)Cc1nsc(NCc2ccc(O)cc2O)n1 | -1 |
| COc1ccc(C(C)=O)c(O[C@@H](C)C(=O)NCC(F)(F)F)c1 | -13 |
| CC(C)CN1C(=O)CC[C@@H](C(=O)NCCCN2CCOCC2)[C@@H]1c1cccnc1 | -9 |
| CC(C)(C)c1cc2c(NCC3=CCOCC3)nccn2n1 | -4 |
| c1ccc2c[n+](Cc3ccc4ccccc4n3)ccc2c1 | 50 |
| O=S(=O)(Nc1ccc(O)c2cccnc12)N1CCCC1 | 15 |
| C/C(=N\S(=O)(=O)c1ccc(Cl)cc1)Nc1cc(C(C)C)c(O)cc1C | -12 |
| O=C(O)c1ccc(N(C(=O)c2ccc3c(c2)OCO3)C(=O)c2ccc3c(c2)OCO3)cc1O | 3 |
| Cc1nn(-c2ccccc2)c2c1[C@@H](c1ccc(C(F)(F)F)cc1)N(c1ccccc1)C(=O)N2 | 2 |
| Cc1c(NC(=O)C(F)(F)[C@@]2(F)OC(F)(F)C(F)(F)C2(F)F)c(=O)n(-c2ccccc2)n1C | -13 |
| COc1cccc(CNCCCN2CCOCC2)c1OCc1ccc(Cl)cc1Cl | -1 |
| CN(C(=O)CN(CCO)c1ccc(Br)cc1)C1CC1 | -2 |
| O=C1NC(=O)c2ccc3c4c(ccc1c24)C(=O)N(c1ccccc1)C3=O | 49 |
| COc1cccc(N2C(=O)N[C@H](C)C2=O)c1 | 8 |
| CCCCNC(=O)NCc1nc2ccccn2c1Cl | -13 |
| CCCOc1ccc2c(c1)OCC(C(=O)N1CCC[C@H](C(N)=O)C1)=C2 | -8 |
| O=C(CN1CCC(c2ccc(F)c(F)c2)CC1)NCc1cccnc1 | -11 |
| N#Cc1c(NC(=O)Nc2cn3ccccc3c2C#N)cn2ccccc12 | -6 |
| Cc1nc2nnnn2c(C)c1C/C=C/c1ccccc1 | 0 |
| C[C@H]1[C@@H]2[C@@H](O)C([C@H](C)C(=O)NC3CCCCC3)CC[C@@]2(C)CC[C@@H]1NC(=O)CC(C)(C)C (stereo partly specified) | 35 |
| NC(=O)CN1CCC2(CC1)NC(c1ccc(OC(F)(F)F)cc1)=NO2 | 0 |
| COCC(=O)N(C1CCOCC1)[C@H]1CCCN(Cc2c[nH]c3ccc(OC)cc23)C1 | -9 |
| C[C@@H](C1CC1)N(C1CC1)S(=O)(=O)c1ccc(F)cc1F | -2 |
| CC1Cc2cc(-c3ccc(CNC(=O)C(C)(O)C4CC4)cc3)ccc2O1 (stereo unspecified) | 4 |
| CC[C@@H](CO)NCc1ccc(OC)cc1OC | -2 |
| N=C1CCCN1c1c(Cl)cccc1Cl | 3 |

| SMILES | % Inhibition [%] |
| --- | --- |
| Cc1ccc(CC(=O)N2C[C@H](c3ccccc3)C(c3ccc(Cl)cc3)=N2)cc1 | 6 |
| O=C(NCc1ccco1)c1ccc2c(c1)OCO2 | -9 |
| O=C(NS(=O)(=O)C1CCOCC1)c1csc(-c2ccco2)n1 | -12 |
| COc1ccc(OC)c(CNC(=O)c2ccc(Nc3ncc(-c4cccc(F)c4)cn3)cc2)c1 | -6 |
| Nc1nonc1C(=O)N1CCN(C(=O)Nc2cccc(F)c2)CC1 | -6 |
| Cc1nn(-c2ncc(C(F)(F)F)cc2Cl)c(=O)n1-c1cccc(Cl)c1 | 1 |
| CCc1n[nH]c(=O)c(C(=O)Nc2cnc3[nH]nc(C)c3c2)c1CC | -1 |
| Cc1cccc(N2CCN(C(=O)CN3CCN(Cc4ccc(Cl)cc4)C3=O)C[C@@H]2C)c1 | -4 |
| Cc1ccsc1CN(C(=O)c1cccc[n+]1[O-])C(C)C | -1 |
| O=C(c1ccc(COc2ccc(Cl)cc2Cl)cc1)n1cc(Br)cn1 | -4 |
| O=C(CN1C(=O)N[C@H](c2ccc(F)cc2)C1=O)Nc1ccc2c(c1)OCCO2 | -12 |
| Cc1nsc2ncn(C[C@H](O)COCc3ccco3)c(=O)c12 | 3 |
| COc1cc(F)c([C@H](C)NC(=O)N(C)Cc2ccco2)cc1OC | 49 |
| Clc1ccc(Cl)c(-c2ccc(CNCCOc3ccccn3)o2)c1 | 4 |
| CCC(=O)N1CCN(c2nc3c(s2)C[C@@H](C(=O)Nc2cccc(Cl)c2)CC3)CC1 | -17 |
| Cc1ccn(-c2ccc(C(=O)NC3CCCC3)cn2)n1 | -13 |
| CC(C)(C)n1ncc2c1NC(=O)C[C@@H]2c1c(F)cccc1Cl | -18 |
| COCC[C@](C)(O)CNC(=O)Nc1ccccc1 | 1 |
| CCCc1nc(CNc2cccc3c2N(C(C)=O)CC3)no1 | -11 |
| CCOc1cc(Cl)c(Cl)c(C#N)c1OC(C)=O | -4 |
| COC(=O)C1=C(C(=O)OC)SC(=C2C(=S)C(C)(C)N(C(=O)COc3ccc4ccccc4c3)c3ccccc32)S1 | 9 |
| N#CC1(c2ccccc2)c2ccccc2C(=O)c2ccccc21 | -8 |
| COc1ccc(CCNC(=O)c2cnn3c4c(cnc23)C[C@@H](C)CC4)cc1OC | 37 |
| O=C(Nc1ccccc1)c1ccc(Nc2ncc(-c3cccc(F)c3)cn2)cc1 | -3 |
| COc1cc(-c2nc3ccccc3s2)ccc1OCc1cccc2ccccc12 | -7 |
| CCN1C(=O)C[C@H](C(=O)Nc2cnc3ccccc3c2)[C@H]1c1nccn1CC | 2 |

| SMILES | % Inhibition [%] |
| --- | --- |
| CC(C)=C(F)C(=O)N1CC[C@H](CO)C[C@@H]1C | -3 |
| [O-]/[N+](=C\c1ccncc1)Cc1ccccc1 | -15 |
| C=CCOc1ccc(CN(C)S(=O)(=O)CC#N)cc1 | -1 |
| Cc1c(Cl)cccc1C(=O)N1CCC[C@H](Cn2cncn2)C1 | -2 |
| Cc1cccn2cc(CN(C)[C@H](c3ccccn3)C3CC3)nc12 | 7 |
| CN1CCN(c2nc(O)c3c(n2)NC(=O)C[C@H]3c2c(F)cccc2F)CC1 | -3 |
| Nc1c(-c2ccc(F)cc2)cnc2cc(-c3ccc(Cl)c(Cl)c3)nn12 | 3 |
| CC(=O)N1CCC2(CC1)NN=C1C=CC(c3nc(C(C)(C)C)no3)=CN12 | -5 |
| CC[C@H]1Cn2c(C(=O)NCc3ccc(C)o3)cc3cccc(c32)O1 | -11 |
| CCN(CC(=O)Nc1ccc2c(c1)OCCO2)C(=O)CCc1c(C)noc1Cl | 14 |
| O=S(=O)(c1ccccc1Br)N1CC[C@H]1c1ccccc1 | -6 |
| Fc1ccc(Nc2nc(OC(C(F)(F)F)C(F)(F)F)nc(N3CCCCCC3)n2)cc1 | -9 |
| CCN(C(C)=O)c1nc(CN2CCc3cc(C)cc(C)c3C2)cs1 | 0 |
| Cc1nnc(-c2cnn(C)c2N)n1C[C@H]1CCCO1 | -2 |
| Cc1ccc(Cl)c2ccc(NC(=O)CCNC(N)=O)nc12 | 0 |
| COC(=O)c1ccccc1NC(=O)NCCn1nnc2cc(S(=O)(=O)N(C)C)ccc21 | 55 |
| COCC(=O)N[C@H]1CO[C@H]2[C@@H]1OC[C@@H]2Nc1nccc(-c2cccc(C#N)c2)n1 | 4 |
| CC(=O)N1CCCN(C(=O)c2ccccc2)CCNC(=O)[C@@H]2CCC[C@@H]21 | 0 |
| COc1nc(-c2cccc(C(=O)NCC3CCOCC3)c2)ncc1F | 66 |
| C=CCN(CC=C)C(=O)COc1cc(C)c(C)nn1 | 2 |
| CCn1c(=O)c(N2CCN(C(=O)Nc3ccc(F)cc3F)CC2)nc2ccccc21 | 2 |
| O=C(CN1CCC[C@H](O)C1)N(C1CCCCC1)C1CCCCC1 | 7 |
| Cc1cc(C(=O)N[C@H]2CCS(=O)(=O)C2)nc(N(C)C)n1 | -6 |
| CC[C@H](Nc1ccc(Cl)c(NC(C)=O)c1)C(=O)OC | -10 |
| CN(CC(F)(F)F)S(=O)(=O)c1ccc(C(=O)O)cc1 | -5 |
| COCCOc1ccc2c(n1)CCN(C(=O)c1ccc(OC)cc1)C2 | -14 |

| SMILES | % Inhibition [%] |
| --- | --- |
| COc1ccc(-n2nnnc2C2(N3CCOCC3)CCCC2)cc1OC | -6 |
| CN1CCC2C(CCN2C(=O)Nc2ccc(Cl)c(C(F)(F)F)c2)C1 (stereo unspecified) | 2 |
| Cc1cc(C(=O)NCCCN2CCCC2=O)nn1C(F)F | -13 |
| Oc1nc(-c2cccc(C(F)(F)F)c2)sc1-c1ccccc1 | 0 |
| COCCCn1c(NS(=O)(=O)c2ccccc2)c(S(=O)(=O)c2ccc(C)cc2)c2nc3ccccc3nc21 | 61 |
| CC(C)(C)OC(=O)N1CCC2(CC1)NN=C1C=C(N3CCN(c4ccccc4F)CC3)N=CN12 | -8 |
| CC(C)(C)OC(=O)NCc1ccccc1O | 1 |
| COc1cccc2c(=O)c3c([nH]c12)CCN(CC(=O)NCc1ccccc1Cl)C3 | 42 |
| CCn1cc2c(n1)c(=O)n(Cc1ccc(C)cc1)c(=O)n2CC(=O)Nc1ccc(C)cc1C | -10 |
| CCOC(=O)c1cc(NC(=O)NCCS(C)(=O)=O)c(F)cc1C | -9 |
| O=S(=O)(c1cccnc1)N(CC1CCCCC1)c1cnccn1 | -2 |
| COc1ccc(S(=O)(=O)N(C2CCCCC2)C2CCCCC2)cc1 | -11 |
| COc1cc(C)c2[nH]c3c(c(=O)c2c1)CN(CC(=O)Nc1ccc2c(c1)OCCO2)CC3 | 16 |
| Cc1occc1C(=O)NC1(c2ccccc2)CCOCC1 | -5 |
| Cc1cc(C)c(CNC(=O)c2c[nH]c3ncccc23)c(=O)[nH]1 | -2 |
| CC1CCCCC1NC(=O)CN1CCN(Cc2cccc(Cl)c2)C1=O (stereo unspecified) | -11 |
| CC(C)c1cccc(Nc2nc3ccncc3n(C(C)C)c2=O)c1 | 95 |
| CC1CCN(C[C@H]2CCCCCN2C(=O)NCCc2ccccc2)CC1 | 34 |
| O=C1C2CC=CCC2C(=O)N1CNc1ccc(Cl)cc1 (stereo unspecified) | -12 |
| CCC(C#N)(CC)c1nc(-c2cc(N)nc3ccccc23)no1 | -1 |
| O=C(c1ccc(Cl)cc1)c1c[nH]c2c(F)cc(F)cc2c1=O | 5 |
| CC(C)COCn1cc(Br)c(=O)[nH]c1=O | -5 |
| FC(F)(F)c1cc(Oc2cc(Oc3ccc(Cl)c(C(F)(F)F)c3)nc(Oc3ccc(Cl)c(C(F)(F)F)c3)n2)ccc1Cl | 0 |

From ChEMBL document CHEMBL4888484, “Replenishing the malaria drug discovery pipeline: Screening and hit evaluation of the MMV Hit Generation Library 1 (HGL1) against asexual blood stage Plasmodium falciparum ,using a nano luciferase reporter read-out” (2022)
